# Assay results as given in patent US20260297081A1, “COMPOUNDS AND METHODS OF TREATING CANCERS” (Cullgen Inc., priority 2023, published 2026).
# The name of at least one read-out is uncertain.
# Tested on: cyclin D1
# Assay: HiBiT detection of HiBiT-tagged cyclin D1 protein level in MCF7 cells, 16 hours (Table 8)
# Format: cell-based
# Details: MCF7 cells stably expressing HiBiT tagged target proteins
SMILES,% Cyclin D1 Relative Level (10 nM),% Cyclin D1 Relative Level (100 nM)
"CC(=O)c1c(C)c2cnc(Nc3ccc(CN4CCN(CC(=O)N(C)C5CC6(CC(Nc7nc(NC(C)C)ccc7C(=O)Nc7ccc(N(C)C)nn7)C6)C5)CC4)cn3)nc2n(C2CCCC2)c1=O (stereo not drawn) [CPD-594, 2-((6-(2-(4-((6-((6-acetyl-8-cyclopentyl-5-methyl-7-oxo-7,8-dihydropyrido[2,3-d]pyrimidin-2-yl)amino)pyridin-3-yl)methyl)piperazin-1-yl)-N-methylacetamido)spiro[3.3]heptan-2-yl)amino)-N-(6-(dimethylamino)pyridazin-3-yl)-6-(isopropylamino)nicotinamide]",B (55%< Relative protein level ≤85%),B (55%< Relative protein level ≤85%)
"CC(=O)c1c(C)c2cnc(Nc3ccc(CN4CCC(N(C)C(=O)C5CC6(CC(Nc7nc(NC(C)C)ccc7C(=O)Nc7ccc(N(C)C)nn7)C6)C5)CC4)cn3)nc2n(C2CCCC2)c1=O (stereo not drawn) [CPD-595, 2-((6-((1-((6-((6-acetyl-8-cyclopentyl-5-methyl-7-oxo-7,8-dihydropyrido[2,3-d]pyrimidin-2-yl)amino)pyridin-3-yl)methyl)piperidin-4-yl)(methyl)carbamoyl)spiro[3.3]heptan-2-yl)amino)-N-(6-(dimethylamino)pyridazin-3-yl)-6-(isopropylamino)nicotinamide]",C (Relative protein level >85%),C (Relative protein level >85%)
"CC(=O)c1c(C)c2cnc(Nc3ccc(CN4CCC(CC(=O)NC5CC6(C5)CC(Nc5nc(NC(C)C)ccc5C(=O)Nc5ccc(N(C)C)nn5)C6)C4)cn3)nc2n(C2CCCC2)c1=O (stereo not drawn) [CPD-596, 2-((6-(2-(1-((6-((6-acetyl-8-cyclopentyl-5-methyl-7-oxo-7,8-dihydropyrido[2,3-d]pyrimidin-2-yl)amino)pyridin-3-yl)methyl)pyrrolidin-3-yl)acetamido)spiro[3.3]heptan-2-yl)amino)-N-(6-(dimethylamino)pyridazin-3-yl)-6-(isopropylamino)nicotinamide]",C (Relative protein level >85%),C (Relative protein level >85%)
"CCc1ccc(C(=O)Nc2ccc(N(C)C)nn2)c(N[C@H]2CC[C@H](C(=O)N3CCC(N4CCN(C5CCC(Nc6ncc7c(C)c(C(C)=O)c(=O)n(C8CCCC8)c7n6)CC5)CC4)C3)CC2)n1 (stereo partly drawn) [CPD-597, 2-((trans-4-(3-(4-(4-((6-acetyl-8-cyclopentyl-5-methyl-7-oxo-7,8-dihydropyrido[2,3-d]pyrimidin-2-yl)amino)cyclohexyl)piperazin-1-yl)pyrrolidine-1-carbonyl)cyclohexyl)amino)-N-(6-(dimethylamino)pyridazin-3-yl)-6-ethylnicotinamide]",C (Relative protein level >85%),B (55%< Relative protein level ≤85%)
"CCc1ccc(C(=O)Nc2ccc(N(C)C)nn2)c(NC2CC3(CC(NC(=O)CN4CCN(Cc5ccc(Nc6ncc7c(C)c(C(C)=O)c(=O)n(C8CCCC8)c7n6)nc5)CC4)C3)C2)c1 (stereo not drawn) [CPD-598, 2-((6-(2-(4-((6-((6-acetyl-8-cyclopentyl-5-methyl-7-oxo-7,8-dihydropyrido[2,3-d]pyrimidin-2-yl)amino)pyridin-3-yl)methyl)piperazin-1-yl)acetamido)spiro[3.3]heptan-2-yl)amino)-N-(6-(dimethylamino)pyridazin-3-yl)-4-ethylbenzamide]",C (Relative protein level >85%),C (Relative protein level >85%)
"CC(=O)c1c(C)c2cnc(Nc3ccc(CC4CCN(CC(=O)NC5CC6(C5)CC(Nc5nc(NC(C)C)ccc5C(=O)Nc5ccc(N(C)C)nn5)C6)CC4)cn3)nc2n(C2CCCC2)c1=O (stereo not drawn) [CPD-599, 2-((6-(2-(4-((6-((6-acetyl-8-cyclopentyl-5-methyl-7-oxo-7,8-dihydropyrido[2,3-d]pyrimidin-2-yl)amino)pyridin-3-yl)methyl)piperidin-1-yl)acetamido)spiro[3.3]heptan-2-yl)amino)-N-(6-(dimethylamino)pyridazin-3-yl)-6-(isopropylamino)nicotinamide]",C (Relative protein level >85%),B (55%< Relative protein level ≤85%)
"CNc1ccc(C(=O)Nc2ccc(N(C)C)nn2)c(NCCC(=O)N2CCN(Cc3ccc(Nc4ncc(F)c(-c5cc(F)c6nc(C)n(C(C)C)c6c5)n4)nc3)CC2)n1 [CPD-600, N-(6-(dimethylamino)pyridazin-3-yl)-2-((3-(4-((6-((5-fluoro-4-(4-fluoro-1-isopropyl-2-methyl-1H-benzo[d]imidazol-6-yl)pyrimidin-2-yl)amino)pyridin-3-yl)methyl)piperazin-1-yl)-3-oxopropyl)amino)-6-(methylamino)nicotinamide]",C (Relative protein level >85%),C (Relative protein level >85%)
"CNc1ccc(C(=O)Nc2ccc(N(C)C)nn2)c(NCCCC(=O)N2CCN(Cc3ccc(Nc4ncc(F)c(-c5cc(F)c6nc(C)n(C(C)C)c6c5)n4)nc3)CC2)n1 [CPD-601, N-(6-(dimethylamino)pyridazin-3-yl)-2-((4-(4-((6-((5-fluoro-4-(4-fluoro-1-isopropyl-2-methyl-1H-benzo[d]imidazol-6-yl)pyrimidin-2-yl)amino)pyridin-3-yl)methyl)piperazin-1-yl)-4-oxobutyl)amino)-6-(methylamino)nicotinamide]",C (Relative protein level >85%),C (Relative protein level >85%)
"CNc1ccc(C(=O)Nc2ccc(N(C)C)nn2)c(NCCCCC(=O)N2CCN(Cc3ccc(Nc4ncc(F)c(-c5cc(F)c6nc(C)n(C(C)C)c6c5)n4)nc3)CC2)n1 [CPD-602, N-(6-(dimethylamino)pyridazin-3-yl)-2-((5-(4-((6-((5-fluoro-4-(4-fluoro-1-isopropyl-2-methyl-1H-benzo[d]imidazol-6-yl)pyrimidin-2-yl)amino)pyridin-3-yl)methyl)piperazin-1-yl)-5-oxopentyl)amino)-6-(methylamino)nicotinamide]",C (Relative protein level >85%),C (Relative protein level >85%)
"CNc1ccc(C(=O)Nc2ccc(N(C)C)nn2)c(NCCCCCC(=O)N2CCN(Cc3ccc(Nc4ncc(F)c(-c5cc(F)c6nc(C)n(C(C)C)c6c5)n4)nc3)CC2)n1 [CPD-603, N-(6-(dimethylamino)pyridazin-3-yl)-2-((6-(4-((6-((5-fluoro-4-(4-fluoro-1-isopropyl-2-methyl-1H-benzo[d]imidazol-6-yl)pyrimidin-2-yl)amino)pyridin-3-yl)methyl)piperazin-1-yl)-6-oxohexyl)amino)-6-(methylamino)nicotinamide]",C (Relative protein level >85%),C (Relative protein level >85%)
"CNc1ccc(C(=O)Nc2ccc(N(C)C)nn2)c(NCCCCCCC(=O)N2CCN(Cc3ccc(Nc4ncc(F)c(-c5cc(F)c6nc(C)n(C(C)C)c6c5)n4)nc3)CC2)n1 [CPD-604, N-(6-(dimethylamino)pyridazin-3-yl)-2-((7-(4-((6-((5-fluoro-4-(4-fluoro-1-isopropyl-2-methyl-1H-benzo[d]imidazol-6-yl)pyrimidin-2-yl)amino)pyridin-3-yl)methyl)piperazin-1-yl)-7-oxoheptyl)amino)-6-(methylamino)nicotinamide]",C (Relative protein level >85%),C (Relative protein level >85%)
"CNc1ccc(C(=O)Nc2ccc(N(C)C)nn2)c(NCCCCCCCC(=O)N2CCN(Cc3ccc(Nc4ncc(F)c(-c5cc(F)c6nc(C)n(C(C)C)c6c5)n4)nc3)CC2)n1 [CPD-605, N-(6-(dimethylamino)pyridazin-3-yl)-2-((8-(4-((6-((5-fluoro-4-(4-fluoro-1-isopropyl-2-methyl-1H-benzo[d]imidazol-6-yl)pyrimidin-2-yl)amino)pyridin-3-yl)methyl)piperazin-1-yl)-8-oxooctyl)amino)-6-(methylamino)nicotinamide]",C (Relative protein level >85%),C (Relative protein level >85%)
"CNc1ccc(C(=O)Nc2ccc(N(C)C)nn2)c(NCCOCCC(=O)N2CCN(Cc3ccc(Nc4ncc(F)c(-c5cc(F)c6nc(C)n(C(C)C)c6c5)n4)nc3)CC2)n1 [CPD-606, N-(6-(dimethylamino)pyridazin-3-yl)-2-((2-(3-(4-((6-((5-fluoro-4-(4-fluoro-1-isopropyl-2-methyl-1H-benzo[d]imidazol-6-yl)pyrimidin-2-yl)amino)pyridin-3-yl)methyl)piperazin-1-yl)-3-oxopropoxy)ethyl)amino)-6-(methylamino)nicotinamide]",C (Relative protein level >85%),C (Relative protein level >85%)
"CNc1ccc(C(=O)Nc2ccc(N(C)C)nn2)c(NCCOCCOCCC(=O)N2CCN(Cc3ccc(Nc4ncc(F)c(-c5cc(F)c6nc(C)n(C(C)C)c6c5)n4)nc3)CC2)n1 [CPD-607, N-(6-(dimethylamino)pyridazin-3-yl)-2-((2-(2-(3-(4-((6-((5-fluoro-4-(4-fluoro-1-isopropyl-2-methyl-1H-benzo[d]imidazol-6-yl)pyrimidin-2-yl)amino)pyridin-3-yl)methyl)piperazin-1-yl)-3-oxopropoxy)ethoxy)ethyl)amino)-6-(methylamino)nicotinamide]",C (Relative protein level >85%),C (Relative protein level >85%)
"CNc1ccc(C(=O)Nc2ccc(N(C)C)nn2)c(NCCNC(=O)CN2CCN(Cc3ccc(Nc4ncc(F)c(-c5cc(F)c6nc(C)n(C(C)C)c6c5)n4)nc3)CC2)n1 [CPD-608, N-(6-(dimethylamino)pyridazin-3-yl)-2-((2-(2-(4-((6-((5-fluoro-4-(4-fluoro-1-isopropyl-2-methyl-1H-benzo[d]imidazol-6-yl)pyrimidin-2-yl)amino)pyridin-3-yl)methyl)piperazin-1-yl)acetamido)ethyl)amino)-6-(methylamino)nicotinamide]",C (Relative protein level >85%),C (Relative protein level >85%)
